The record followed here is PMC5700166.

The list shows a part of the results, in another mix than the full data. The list includes weakly bound sequences.

This experiment deals with T1, GST-Aq-NF-kB (UniProt A9Y5G7).
T1 sequence: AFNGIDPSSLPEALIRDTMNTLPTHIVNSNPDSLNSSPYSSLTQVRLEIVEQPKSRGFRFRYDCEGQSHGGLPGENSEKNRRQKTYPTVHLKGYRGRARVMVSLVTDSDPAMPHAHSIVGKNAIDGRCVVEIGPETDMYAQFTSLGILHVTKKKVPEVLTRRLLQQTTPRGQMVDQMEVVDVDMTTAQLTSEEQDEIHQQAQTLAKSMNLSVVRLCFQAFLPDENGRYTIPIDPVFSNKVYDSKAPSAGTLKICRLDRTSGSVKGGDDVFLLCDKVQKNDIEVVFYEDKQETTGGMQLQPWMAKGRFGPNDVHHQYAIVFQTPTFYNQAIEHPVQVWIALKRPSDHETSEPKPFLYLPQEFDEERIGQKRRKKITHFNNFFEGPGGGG
The experiment is described as follows: protein-binding microarray (PBM). The note with it: PBM: ~300 nM protein, 6 mM HEPES pH 7.8, 80 mM KCl, 0.5 mM EDTA, 0.5 mM EGTA, 6% glycerol, 35 ng/ul poly-dIdC, 1% milk, 1 h, room temperature; Ap Aiptasia and Nv Nematostella (sea anemones) / Co Capsaspora / Aq Amphimedon (sponge) / Dm Drosophila / Hu human; RHD is the Rel homology domain; high values mean tight binding; most listed sequences are background and not binding sites; double strand, one strand shown.
Regarding “CCGATTAACATCACCGAACGCTTTGATGTTAATCGGGTCTTGATTCGCTTGACGCTGCTG”, the binding signal was 0.0848 z-score.
“CCGATTAACATCAGTAGGTTCTTTGATGTTAATCGGGTCTTGATTCGCTTGACGCTGCTG” had a binding signal of 0.0356 z-score.
In turn, “CCGATTAACATCAACGCCCTGCCTGATGTTAATCGGGTCTTGATTCGCTTGACGCTGCTG” had a binding signal of -0.294 z-score.
With “CCGATTAACATCATATGAGGACCTGATGTTAATCGGGTCTTGATTCGCTTGACGCTGCTG”, the binding signal is -0.248 z-score.
Under “CCGATTAACATCACTGTTCACTCTGATGTTAATCGGGTCTTGATTCGCTTGACGCTGCTG” stands -0.477 z-score; under “CCGATTAACATCATTAGCGTTACTGATGTTAATCGGGTCTTGATTCGCTTGACGCTGCTG”, -0.453 z-score; under “CCGATTAACATCACGAAGCTTGATGATGTTAATCGGGTCTTGATTCGCTTGACGCTGCTG”, -0.762 z-score.
With “CCGATTAACATCAGTTCTCCGGGTGATGTTAATCGGGTCTTGATTCGCTTGACGCTGCTG”, the binding signal amounted to 0.584 z-score.
In turn, “CCGATTAACATCACTAATCTTTTTGATGTTAATCGGGTCTTGATTCGCTTGACGCTGCTG” showed a binding signal of -0.301 z-score.
The sequence “CCGATTAACATCAGGATTTTCTATGATGTTAATCGGGTCTTGATTCGCTTGACGCTGCTG” showed a binding signal of 0.379 z-score.
The result for “CCGATTAACATCAGCGTTGGATGTGATGTTAATCGGGTCTTGATTCGCTTGACGCTGCTG” reads -0.183 z-score.
Consider “CCGATTAACATCAGCTCTGGAACTGATGTTAATCGGGTCTTGATTCGCTTGACGCTGCTG”, for which the binding signal is -0.502 z-score.
“CCGATTAACATCATAAACTCTCTTGATGTTAATCGGGTCTTGATTCGCTTGACGCTGCTG” displayed a binding signal of -0.33 z-score.
As for “CCGATTAACATCAGACGCTATAATGATGTTAATCGGGTCTTGATTCGCTTGACGCTGCTG”, the binding signal is -0.372 z-score.
